Experimental data published in the RNAGym collection of RNA variant scans (doi:10.7554/elife.90254).
The source gives no read counts; variants with many changes may rest on few reads.

B1: LINE1-mini (parent)
chain: GGCAGAGCUCAACACAGCGUGGCAAAGUGGCUGUGGCUAGACUGCC

Variants of: B1
Assay: self-cleavage, relative activity (ratio to wild type); higher = more cleavage; in vitro, sequencing; the parent is a self-cleaving ribozyme

Row | Variant | self-cleavage
1 | U28C G30A U32A G40U C45A | 0.07
2 | G30U C37U C42U G44U | 0
3 | G27U G29C G33U U34C | 0.09
4 | G27U U28A C37G | 0
5 | U28G G36C C37A A39G | 0.08
6 | G30U C45G C46A | 0.32
7 | G30A C31U C42U | 0.05
8 | G29A G30C G35U | 0.02
9 | G30C C31G G40U U43G C46U | 0.01
10 | U34A C45G C46U | 0.03
11 | G30U A41G U43C G44U | 0.06
12 | G30A G40A C46A | 0.11
13 | U32C G44U C45A | 0.05
14 | G29C G35A C45G | 0.04
15 | G27C U38G A39G C42G | 0.01
16 | C31G G36C C46U | 0.01
17 | U28A C31A A39U | 0.16
18 | G27U U38G G44U | 0.02
19 | G27U A41C G44U | 0.16
20 | C31A G36U C42G G44U | 0.02
21 | G30C G35C C37U | 0.05
22 | G35A C45U C46G | 0.2
23 | G27C G35A G36U | 0.22
24 | G35A A39U A41C | 0.01

Row | Variant | self-cleavage
25 | U32G A39U C42G | 0
26 | G30A G40A C45A | 0.14
27 | U32G G35U G44U | 0.02
28 | G33C U43C C45G C46A | 0.03
29 | C31A G35C A39U | 0.02
30 | G30C G33U G35C | 0.04
31 | G27U G35A C42U | 0.07
32 | G30A C42U C45G | 0.07
33 | G29U U32C G35C G40A | 0.06
34 | G35A A39U G40U | 0.1
35 | G33U G36U G44U C45A | 0.01
36 | U28A C37G C42G | 0.02
37 | U32A C37G A39C G44A | 0.04
38 | G27C G30A C45A | 0.37
39 | G29U G36A A39C G40A | 0.54
40 | G27U C31U C37A A39G | 0.04
41 | U32C C37A U38C A41G C42U C45U | 0.03
42 | U32A A41U C45A | 0.15
43 | U28G G30A G36C | 0.02
44 | U32G C42G G44U | 0.05
45 | C31U G33C C45U | 0.02
46 | U28C A41U G44A | 0.16
47 | C31U G36U A41G | 0.03
48 | G27C C42G G44U | 0.01

Row | Variant | self-cleavage
49 | U28G A41U C42G | 0.03
50 | U28C C37G A41G | 0.01
51 | G30C U38A A39C | 0.08
52 | U34C G36A C45U C46A | 0.04
53 | U34C A39U C46U | 0.18
54 | G29C U38G U43A | 0.02
55 | U28G G33U U38G C42U | 0.14
56 | G30A G35C G36A | 0.06
57 | C31A A39G A41C | 0.03
58 | G29C G30C A39U | 0.09
59 | G35C A41U G44A | 0.03
60 | G27U G30U A41U C42A | 0.03
61 | U28C U38A C42G | 0.01
62 | G27U G36A C46A | 0.04
63 | G33C C45G C46A | 0.02
64 | U34A G40U G44U | 0.06
65 | U34A C37A C42A | 0.01
66 | U28A G40A C46A | 0.03
67 | G30U C31A C42A | 0.06
68 | G29U C42U G44A | 0.04
69 | G27U G30U G35U G40C | 0.04
70 | U28A C31G G35A U38C | 0.06
71 | U28A G33U C46U | 0.28
72 | G33A C37U U38C | 0.04

Row | Variant | self-cleavage
73 | G27C G29A G40C | 0.14
74 | U28A G30C U34C C46U | 0.01
75 | C31A G33A C42G | 0.2
76 | U28C U34A G40C | 0.08
77 | C31U G35U C45A | 0.13
78 | U32A U34G A39G C42U | 0.01
79 | C31G G35C C42U | 0
80 | G27U C37G U43G | 0.04
81 | G35A G40A A41G | 0.04
82 | G33U G35U C45G | 0.05
83 | G33U G35U C45A | 0.02
84 | G27C U34A C37U G40A | 0.02
85 | G27C G30U C37G | 0.04
86 | U34G G35C A39G | 0.01
87 | U32G G33C G36U C42G | 0.02
88 | G29A U38C C42U | 1.31
89 | G33U G36A U38C A39U | 0.01
90 | C31U C37U G40U | 0.02
91 | U32C U43A C46U | 0.06
92 | G27U G30A G35A | 0.03
93 | C31A U34G G36U C37A C42A | 0
94 | C31U G35A C37G G40C | 0.02
95 | U32G U43C C45U | 0.08
96 | G30U C31U A39G | 0.08

Row | Variant | self-cleavage
97 | U32C G33A A39C | 0.02
98 | G27U G36C C45U | 0.05
99 | U34C G35U G40C C45A | 0
100 | G27U C37A G40A | 0.1
101 | G33C G40A U43A | 0.04
102 | C31A G40U G44U | 0
103 | G35C C42G C46G | 0.06
104 | G29C G36A C46U | 0.09
105 | G30A G33C A41U | 0.08
106 | U28A G30C A41C | 0.12
107 | G27C C31G U32G G33C U43C | 0.04
108 | G27A U38C G40A C42U | 0.08
109 | G30A U34G C45A | 0.05
110 | G27C U28G A41C C45A | 0.06
111 | U28A G29U U32A | 0.27
112 | G27C G33C G35C | 0.04
113 | G29C U38C C42A C46G | 0
114 | U28A G30A C31U G40U A41C | 0.06
115 | U28G U34C U43G | 0.05
116 | G30C G33C C45U | 0.03
117 | U28A G30C C42A | 0.02
118 | G33A G35U C42G C45A | 0.05
119 | G29U U34C U43A C45A | 0.01
120 | G33U C37G A39G | 0.05

Row | Variant | self-cleavage
121 | C31U U34A G35U C45A | 0.02
122 | U34C C37A U38G C42A | 0.02
123 | G27C G36C C37A | 0.12
124 | G35A A39C G44A | 0.04
125 | G29U G40U A41U C46A | 0.32
126 | U28A G35U C46U | 0.1
127 | G33U A39U A41U | 0.1
128 | G27C U32G U34A | 0.09
129 | C31U C37U C42G | 0.02
130 | C31U G33A G36U | 0.03
131 | U34G A41G G44A | 0.02
132 | G27U C37A C46A | 0.04
133 | G27U G35A A39G | 0.1
134 | G30U G35C C37G | 0.11
135 | G27U C37A G44A | 0.01
136 | C31U A41C C42A | 0.01
137 | G27U U28A G30A | 1.83
138 | U28G C42G U43C C45U | 0.03
139 | U32G G40U U43C | 0.08
140 | C31A A39U C45A | 0
141 | G35A G44U C46A | 0.05
142 | U28G G35C G40A | 0.11
143 | G27U A41G C46A | 0.32
144 | U32A G33A A41U C42U | 0.06

Row | Variant | self-cleavage
145 | G29C A41C C42U | 0.04
146 | G29A C42G U43C | 0.02
147 | G29U G44C C46A | 0.04
148 | C31U C42G G44U | 0.02
149 | G27C U28G G33U A41C | 0.03
150 | G33A G36A C42A | 0.07
151 | G33A C37U C46U | 0.1
152 | G27C G35A G44U | 0.05
153 | U32C G36U G44A | 0.04
154 | G30A C37A A41G | 0.01
155 | G30C G40A A41U C45G | 0.1
156 | G29U U32C C46U | 0.17
157 | G33C G35A U38G | 0.04
158 | G35C G36C C45U | 0.03
159 | U28G G30A U43G G44U | 0.02
160 | U28G U43C G44A | 0.01
161 | U32C G40U C46A | 0.05
162 | G30U C31U C37U | 0.01
163 | G27C G30U G40C | 0.07
164 | G27C G33U U34C G35A | 0.19
165 | C31A G35C U43A | 0.01
166 | C31A C37A C46G | 0.08
167 | G29U G40A U43A | 0.1
